Counter-ions that a name gives are not always drawn. This is one part of the list. Rule as the data show it: active = 0.5 or less and inactive = the rest. Single values are uncertain, as repeats are few or missing.
tested on: HeLa VPS33A reporter cells; test: relative cell viability (CellMask signal) vs DMSO (fraction of DMSO); higher = less cytotoxic; settings: 50 µM; 24 h;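 also: primary screen of an FDA-approved drug library in HeLa reporter cells in 96-well format, CellMask signal normalized to DMSO-treated wells set as 1, under 0.5 deemed highly cytotoxic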

SMILES	relative cell viability
O=C1CC2(CCCC2)CC(=O)N1CCCCN1CCN(c2ncccn2)CC1 [Buspirone HCl]	1.05
Nc1nc(F)nc2c1ncn2[C@@H]1O[C@H](CO)[C@@H](O)[C@@H]1O [Fludarabine]	1.05
CCCCC[C@H](O)/C=C/[C@H]1[C@H](O)CC(=O)[C@@H]1CCCCCCC(=O)O [Alprostadil]	1.01
Nc1nc2c(ncn2COC(CO)CO)c(=O)[nH]1 [Ganciclovir]	0.957
Oc1ccccc1O [Pyrocatechol]	1.07
Cc1ccc(Nc2nccc(N(C)c3ccc4c(C)n(C)nc4c3)n2)cc1S(N)(=O)=O	1.09
CN1CCN(c2c(F)cc3c(=O)c(C(=O)O)cn4c3c2OCN4C)CC1 [Marbofloxacin]	0.967
CC(=O)OCC(CCn1cnc2cnc(N)nc21)COC(C)=O [Famciclovir]	1.03
C[C@H]1O[C@H](O[C@H]2[C@H](O)[C@@H](O)[C@@H](O[C@@H]([C@H](O)[C@@H](O)C=O)[C@H](O)CO)O[C@@H]2CO)[C@H](O)[C@@H](O)[C@@H]1N[C@H]1C=C(CO)[C@@H](O)[C@H](O)[C@H]1O [Acarbose]	1.27
CC(C)(Oc1ccc(Cl)cc1)C(=O)O [Clofibric Acid]	1
Cc1cccc(Nc2ccncc2S(=O)(=O)NC(=O)NC(C)C)c1 [Torsemide]	1.04
CC1(C)O[C@@H]2C[C@H]3[C@@H]4CCC5=CC(=O)CC[C@]5(C)[C@@]4(F)[C@@H](O)C[C@]3(C)[C@]2(C(=O)CCl)O1 [Halcinonide]	0.804
CCCCCCCCCCC[C@@H](C[C@@H]1OC(=O)[C@H]1CCCCCC)OC(=O)[C@H](CC(C)C)NC=O [Orlistat]	1.13
C=CCNC1=C2C[C@@H](C)C[C@H](OC)[C@H](O)[C@@H](C)/C=C(\C)[C@H](OC(N)=O)[C@@H](OC)/C=C\C=C(/C)C(=O)NC(=CC1=O)C2=O	0.865
CS(=O)(=O)c1ccc([C@@H](O)[C@@H](CO)NC(=O)C(Cl)Cl)cc1 [Thiamphenicol]	1.21

tested on: HeLa VPS33A R498W KI + HA-SDC1-FLAG; test: relative GAG core protein HA-SDC1 amount per cell number vs DMSO (fraction of DMSO); HeLa model of a glycosaminoglycan (GAG) storage disease; KI is knock-in and KO knock-out; SDC1 is syndecan 1; higher = more SDC1 (GAG core protein); settings: 50 µM; 24 h;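 also: HA-SDC1 level read out by In-Cell Western staining with an anti-HA antibody against the N-terminal tag, screening FDA-approved library drugs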

SMILES	relative GAG core protein HA-SDC1 amount per cell number
CC1(C)O[C@@H]2C[C@H]3[C@@H]4CCC5=CC(=O)C=C[C@]5(C)[C@H]4[C@@H](O)C[C@]3(C)[C@]2(C(=O)CO)O1 [Desonide]	inactive: 0.856
C=CC1=C(C(=O)O)N2C(=O)[C@@H](NC(=O)/C(=N\O)c3csc(N)n3)[C@H]2SC1 [Cefdinir]	inactive: 1.31
CCCCCCCCCCCCCCCC(=O)O [Palmitic acid]	inactive: 0.745
CCC[S+]([O-])c1ccc2[nH]c(NC(=O)OC)nc2c1 (stereo unspecified) [Albendazole Oxide]	active: 0.293
O=C(O)[C@@H]1C[C@@H](O)CN1 [L-Hydroxyproline]	inactive: 1.03
CCOc1ccccc1OC(c1ccccc1)C1CNCCO1 (stereo unspecified) [Reboxetine mesylate]	inactive: 0.755
C[C@H](CCC(=O)O)[C@H]1CC[C@H]2[C@@H]3CC[C@@H]4C[C@H](O)CC[C@]4(C)[C@H]3C[C@H](O)[C@]12C [Deoxycholic acid]	inactive: 0.802
C[C@H]1C[C@@H]2[C@H]([C@@H](O)C[C@@]3(C)[C@H]2CC[C@]3(O)C(=O)CO)[C@@]2(C)C=CC(=O)C=C12 [Methylprednisolone]	inactive: 1.75
Oc1ncnc2[nH]ncc12 [Allopurinol]	inactive: 1.12
O=c1[nH]cnc2c1ncn2[C@@H]1O[C@H](CO)[C@@H](O)[C@H]1O [Inosine]	inactive: 0.848
COc1cc(-c2oc3cc(O)cc(O)c3c(=O)c2O)ccc1O [Isorhamnetin]	inactive: 0.842
COC(c1ccccc1)(c1ccccc1)[C@H](Oc1nc(C)cc(C)n1)C(=O)O [Ambrisentan]	inactive: 0.846
C[C@@H]1C[C@H]2[C@@H]3C[C@H](F)C4=CC(=O)C=C[C@]4(C)[C@@]3(F)[C@@H](O)C[C@]2(C)[C@@]1(O)C(=O)CO [Flumethasone]	inactive: 1.15
NCCCC[C@@H]1NC(=O)[C@@H](Cc2ccc(O)cc2)NC(=O)[C@H](CC(=O)O)NC(=O)CNC(=O)[C@H](CCCN=C(N)N)NC1=O [Cyclo(RGDyK)]	inactive: 0.804
CC(O)(P(=O)(O)O)P(=O)(O)O [Etidronate]	inactive: 1.15
CCOC(=O)[C@H](CCc1ccccc1)N[C@@H](C)C(=O)N1C(=O)N(C)C[C@H]1C(=O)O [Imidapril HCl]	inactive: 1.3
